Laboratory results published in the supplement of paper PMC8728848.
The other results are listed elsewhere or left out.

Columns and labels:
Test in all cases: glycan array binding signal (z-score within array); higher = stronger binding
Details in all cases: glycan notation: IUPAC condensed, linker removed
[1] = biological target: GlcNAc(b1-3)GalNAc
In short: (§1)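 From the Consortium for Functional Glycomics database, 3228 arrays were curated, keeping only those whose protein sequence was available. Binding is given as a within-array Z-score averaged across arrays sharing a protein sequence and across linkers. Negative Z-scores can be read as non-binding.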

[2] = biological target: GlcNAc(b1-3)Man
In short: as §1

[3] = biological target: GlcNAc(b1-3)[GlcNAc(b1-4)][GlcNAc(b1-6)]GlcNAc
In short: as §1

[4] = biological target: GlcNAc(b1-3)[GlcNAc(b1-6)]Gal(b1-4)GlcNAc
In short: as §1

[5] = biological target: GlcNAc(b1-3)[GlcNAc(b1-6)]GalNAc
In short: as §1

[6] = biological target: GlcNAc(b1-3)[GlcNAc(b1-6)]GlcNAc(b1-4)GlcNAc
In short: as §1

[7] = biological target: GlcNAc(b1-4)Gal(b1-4)GlcNAc
In short: as §1

[8] = biological target: GlcNAc(b1-4)GlcNAc
In short: as §1

[9] = biological target: GlcNAc(b1-4)GlcNAc(b1-4)GlcNAc
In short: as §1

[10] = biological target: GlcNAc(b1-4)GlcNAc(b1-4)GlcNAc(b1-4)GlcNAc(b1-4)GlcNAc
In short: as §1

[11] = biological target: GlcNAc(b1-4)GlcNAc(b1-4)GlcNAc(b1-4)GlcNAc(b1-4)GlcNAc(b1-4)GlcNAc
In short: as §1

[12] = biological target: GlcNAc(b1-4)[GlcNAc(b1-6)]GalNAc
In short: as §1

[13] = biological target: GlcNAc(b1-6)Gal(b1-4)GlcNAc
In short: as §1

[14] = biological target: GlcNAc(b1-6)GalNAc
In short: as §1

[15] = biological target: GlcNAc3Prop(b1-4)GlcNAc
In short: as §1

[16] = biological target: GlcNAc6S(b1-3)Gal(b1-4)GlcNAc
In short: as §1

[17] = biological target: Kdn(a2-3)Gal(b1-3)GalNAc
In short: as §1

[18] = biological target: Kdn(a2-3)Gal(b1-3)GlcNAc
In short: as §1

[19] = biological target: Kdn(a2-3)Gal(b1-4)Glc
In short: as §1

[20] = biological target: Kdn(a2-3)Gal(b1-4)GlcNAc
In short: as §1

[21] = biological target: Kdn(a2-3)Gal(b1-4)[Fuc(a1-3)]GlcNAc
In short: as §1

[22] = biological target: Kdn(a2-6)Gal(b1-4)GlcNAc
In short: as §1

[23] = biological target: Man(a1-2)Man(a1-2)Man(a1-3)Man
In short: as §1

[24] = biological target: Man(a1-2)Man(a1-2)Man(a1-6)[Man(a1-3)]Man
In short: as §1

[25] = biological target: Man(a1-2)Man(a1-3)Man
In short: as §1

[26] = biological target: Man(a1-2)Man(a1-3)[Man(a1-2)Man(a1-6)]Man
In short: as §1

[27] = biological target: Man(a1-2)Man(a1-3)[Man(a1-2)Man(a1-6)]Man(a1-6)[Man(a1-2)Man(a1-2)Man(a1-3)]Man
In short: as §1

[28] = biological target: Man(a1-2)Man(a1-3)[Man(a1-2)Man(a1-6)]Man(a1-6)[Man(a1-2)Man(a1-2)Man(a1-3)]Man(b1-4)GlcNAc(b1-4)GlcNAc
In short: as §1

[29] = biological target: Man(a1-2)Man(a1-3)[Man(a1-6)]Man(a1-6)[Man(a1-2)Man(a1-3)]Man(b1-4)GlcNAc(b1-4)GlcNAc
In short: as §1

[30] = biological target: Man(a1-2)Man(a1-6)[Man(a1-3)]Man(a1-6)[Man(a1-2)Man(a1-2)Man(a1-3)]Man
In short: as §1

[31] = biological target: Man(a1-2)Man(a1-6)[Man(a1-3)]Man(a1-6)[Man(a1-2)Man(a1-2)Man(a1-3)]Man(b1-4)GlcNAc(b1-4)GlcNAc
In short: as §1

[32] = biological target: Man(a1-3)[Man(a1-6)]Man
In short: as §1

[33] = biological target: Man(a1-3)[Man(a1-6)]Man(a1-6)[Man(a1-2)Man(a1-3)]Man(b1-4)GlcNAc(b1-4)GlcNAc
In short: as §1

[34] = biological target: Man(a1-3)[Man(a1-6)]Man(a1-6)[Man(a1-3)]Man
In short: as §1

[35] = biological target: Man(a1-3)[Man(a1-6)]Man(a1-6)[Man(a1-3)]Man(b1-4)GlcNAc(b1-4)GlcNAc
In short: as §1

[36] = biological target: Man(a1-3)[Man(a1-6)]Man(b1-4)GlcNAc(b1-4)GlcNAc
In short: as §1

[37] = biological target: Man(a1-3)[Man(a1-6)]Man(b1-4)GlcNAc(b1-4)[Fuc(a1-6)]GlcNAc
In short: as §1

[38] = biological target: Man(a1-6)Man
In short: as §1

[39] = biological target: Man(b1-4)GlcNAc
In short: as §1

[40] = biological target: MurNAc(b1-4)GlcNAc
In short: as §1

[41] = biological target: Neu5Ac(a2-3)Gal
In short: as §1

[42] = biological target: Neu5Ac(a2-3)Gal(b1-3)GalNAc
In short: as §1

[43] = biological target: Neu5Ac(a2-3)Gal(b1-3)GalNAc(b1-3)Gal(a1-4)Gal(b1-4)Glc
In short: as §1

[44] = biological target: Neu5Ac(a2-3)Gal(b1-3)GalNAc(b1-3)Gal(b1-4)GlcNAc
In short: as §1

[45] = biological target: Neu5Ac(a2-3)Gal(b1-3)GalNAc(b1-4)[Neu5Ac(a2-3)]Gal(b1-4)Glc
In short: as §1

B1: Gal 8 (Homo sapiens) (protein)
chain: MLSLNNLQNIIYNPVIPYVGTIPDQLDPGTLIVICGHVPSDADRFQVDLQNGSSVKPRADVAFHFNPRFKRAGCIVCNTLINEKWGREEITYDTPFKREKSFEIVIMVLKDKFQVAVNGKHTLLYGHRIGPEKIDTLGIYGKVNIHSIGFSFSSDLQSTQASSLELTEISRENVPKSGTPQLQTVSPSWDLQGHGSETFCSVLWTRVFLEIAFCRPIGLTVASFQSLPFAARLNTPMGPGRTVVVKGEVNANAKSFNVDLLAGKSKDIALHLNPRLNIKAFVRNSFLQESWGEEERNITSFPFSPGMYFEMIIYCDVREFKVAVNGVHSLEYKHRFKELSSIDTLEINGDIHLLEVRSW
With B1 as the binder, how does the “glycan array binding signal (z-score)” value [1] read?
Its value is -0.379.

And the “glycan array binding signal (z-score)” value [2]?
The value was -0.316.

What about the “glycan array binding signal (z-score)” value [3] of the same binder?
The value was -0.354.

And the “glycan array binding signal (z-score)” value [4]?
Its value is -0.41.

What about the “glycan array binding signal (z-score)” value [5] of the same binder?
The value was -0.386.

And the “glycan array binding signal (z-score)” value [6]?
The value was -0.727.

And the “glycan array binding signal (z-score)” value [7]?
The value was -0.2.

And the “glycan array binding signal (z-score)” value [8]?
The value was -0.326.

And the “glycan array binding signal (z-score)” value [9]?
The value was -0.325.

And the “glycan array binding signal (z-score)” value [10]?
The value was -0.375.

And the “glycan array binding signal (z-score)” value [11]?
The value was -0.392.

What about the “glycan array binding signal (z-score)” value [12] of the same binder?
Its value is -0.356.

And the “glycan array binding signal (z-score)” value [13]?
The value was -0.395.

What about the “glycan array binding signal (z-score)” value [14] of the same binder?
The value was -0.384.

What about the “glycan array binding signal (z-score)” value [15] of the same binder?
The value was -0.204.

What about the “glycan array binding signal (z-score)” value [16] of the same binder?
Its value is -0.358.

And the “glycan array binding signal (z-score)” value [17]?
Its value is -0.266.

What about the “glycan array binding signal (z-score)” value [18] of the same binder?
The value was 0.561.

And the “glycan array binding signal (z-score)” value [19]?
The value was -0.124.

What about the “glycan array binding signal (z-score)” value [20] of the same binder?
Its value is -0.024.

What about the “glycan array binding signal (z-score)” value [21] of the same binder?
The value was -0.353.

What about the “glycan array binding signal (z-score)” value [22] of the same binder?
The value was -0.355.

What about the “glycan array binding signal (z-score)” value [23] of the same binder?
Its value is -0.388.

What about the “glycan array binding signal (z-score)” value [24] of the same binder?
The value was -0.391.

And the “glycan array binding signal (z-score)” value [25]?
Its value is -0.383.

And the “glycan array binding signal (z-score)” value [26]?
The value was -0.377.

And the “glycan array binding signal (z-score)” value [27]?
The value was -0.354.

What about the “glycan array binding signal (z-score)” value [28] of the same binder?
Its value is -0.534.

What about the “glycan array binding signal (z-score)” value [29] of the same binder?
Its value is -0.532.

And the “glycan array binding signal (z-score)” value [30]?
The value was -0.344.

And the “glycan array binding signal (z-score)” value [31]?
Its value is -0.469.

And the “glycan array binding signal (z-score)” value [32]?
The value was -0.382.

What about the “glycan array binding signal (z-score)” value [33] of the same binder?
The value was -0.55.

What about the “glycan array binding signal (z-score)” value [34] of the same binder?
Its value is -0.368.

And the “glycan array binding signal (z-score)” value [35]?
The value was -0.545.

What about the “glycan array binding signal (z-score)” value [36] of the same binder?
The value was -0.496.

What about the “glycan array binding signal (z-score)” value [37] of the same binder?
Its value is -0.357.

And the “glycan array binding signal (z-score)” value [38]?
The value was -0.37.

And the “glycan array binding signal (z-score)” value [39]?
Its value is -0.392.

What about the “glycan array binding signal (z-score)” value [40] of the same binder?
The value was -0.357.

What about the “glycan array binding signal (z-score)” value [41] of the same binder?
Its value is -0.2.

What about the “glycan array binding signal (z-score)” value [42] of the same binder?
Its value is 0.421.

What about the “glycan array binding signal (z-score)” value [43] of the same binder?
Its value is 0.798.

And the “glycan array binding signal (z-score)” value [44]?
Its value is 1.91.

And the “glycan array binding signal (z-score)” value [45]?
Its value is 1.15.
